Assay results reported in US20220249679A1 (Mitsubishi Tanabe Pharma Corporation, priority 2018, published 2022).

Key:
cyno CD138 = assay: FACS binding to Expi293 cells transfected with cyno CD138; design: species or system cynomolgus monkey; details: 3-fold dilutions from 33.3 μg/mL
Method: (§1) 12P16F6 hIgG1 or 13P30A7 hIgG1 were tested for cross-reactivity to cynomolgus monkey CD138. Antibodies that cross-react with CD138 from cynomolgus monkey (cyno) have an advantage that they can be tested for toxicity in this strain of non-human primate prior to conducting efficacy trials. Briefly, a vector directing the cell-surface expression of human CD138 or cyno CD138 was transfected in Expi293 cells. Binding of 12P16F6 hIgG1 and 13P30A7 hIgG1 to transfected Expi293 cells was tested at 3-fold dilutions starting at 33.3 μg/mL.

human CD138 = target: T1, human CD138 (Homo sapiens, UniProt P18827); assay: FACS binding to Expi293 cells transfected with human CD138; details: 3-fold dilutions from 33.3 μg/mL
T1 sequence (P18827 23-310): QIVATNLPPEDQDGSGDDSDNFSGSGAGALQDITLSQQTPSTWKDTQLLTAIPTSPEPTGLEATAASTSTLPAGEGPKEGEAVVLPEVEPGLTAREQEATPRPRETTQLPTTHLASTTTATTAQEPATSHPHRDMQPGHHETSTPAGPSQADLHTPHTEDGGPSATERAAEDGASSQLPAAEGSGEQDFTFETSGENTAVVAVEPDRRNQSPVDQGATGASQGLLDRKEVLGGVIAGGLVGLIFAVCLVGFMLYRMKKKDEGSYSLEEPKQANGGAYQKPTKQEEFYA
Method: as §1

mouse CD138 peptide = mouse CD138 peptide (Mus musculus, UniProt P18828); assay: CD138 binding ELISA, mouse CD138 peptide; details: ELISA negative control peptide
mouse CD138 peptide, sequence (P18828 147-167): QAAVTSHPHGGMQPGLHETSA
Method: A CD138 binding ELISA was performed with 9 representative humanized antibodies to determine binding to portion of the linear CD138 peptide used for immunization (FIG. 7). […] Coated plates were incubated with various dilutions of each of the 9 representative antibodies overnight and binding was detected with a goat anti-human IgG (H+L)-HRP. EC50s were determined using four parameter fit curves (Table 21). An ELISA was also performed to detect binding to plate-coated human CD138-Fc protein (Table 21). The analysis and results were similar.

[1] = system: ARH-77 (negative CD138 expression) cells; assay: Secondary FACS screen of Fusion 12 hybridomas, ARH-77 cells; assay type: binding
Method: (§2) For secondary screening, hybridoma supernatants were assayed by FACS for positive binding to H929 (CD138 expressing) and negative binding to ARH-77 (negative CD138 expression) cells. Negative cells were CSFE stained to help distinguish better positive and negative cell lines.

CD138 on H929 cells = target: T2, CD138 on H929 cells (Homo sapiens, UniProt P18827); assay: Primary hybridoma FACS screen on CD138 positive cells (H929); assay type: binding
T2 construct: H929 cells are a human B-lymphocyte cell line that expresses CD138 on its cell surface; endogenous in cells; host or cells: H929
T2 sequence (P18827 23-310): T1 sequence (P18827 23-310)
Method: Hybridoma supernatants from Fusion 12 (plates 12-19) were screened by Fluorescence-activated cell sorting (FACS) using 96-well plates containing 20,000 H929 cells per well. H929 cells are a human B-lymphocyte cell line that expresses CD138 on its cell surface. Hybridoma supernatants were added to H929 cells for 1 hour at 4° C. The cells were washed followed by addition of an AlexaFluro 647 anti-mouse antibody and washed again to remove unbound antibody. The cells were analyzed by FACS to detect binding. FACS Data was analyzed by Flowjo software. If supernatant antibodies bound cells at a level ≥3 standard deviations above the average signal of the plate, they were selected for confirmation FACS and further characterization. A total of 5013 hybridomas from Fusion 12 underwent this primary FACS screen with 134 positive hits; a total hit rate of 2.7% in primary screening.

Human CD138 His = target: T3, Human CD138 His (Homo sapiens, UniProt P18827); assay: SPR kinetic binding, human CD138; details: bivalent analyte fit
T3 construct: His
T3 sequence (P18827 23-310): T1 sequence (P18827 23-310)
Method: Murine IgGs were purified from the hybridoma supernatants and the IgGs were subject to SPR (surface plasmon resonance) for kinetic binding measurements. Human or mouse CD138 His was immobilized on a GLM chip at […] on a BioRad Proteon. […] KDs were measured using bivalent analyte fit.

[2] = target: T4, H929 (CD138 expressing) cells (Homo sapiens, UniProt P18827); assay: Secondary FACS screen of Fusion 12 hybridomas, H929 cells; assay type: binding
T4 construct: H929 cells are a human B-lymphocyte cell line that expresses CD138 on its cell surface; endogenous in cells; host or cells: H929
T4 sequence (P18827 23-310): T1 sequence (P18827 23-310)
Method: as §2

[3] = target: T5, human FGFR3b on transfected CHO cells (Homo sapiens, UniProt P22607); assay: FACS binding to CHO cells expressing human FGFR3b; details: FACs analysis, FIG. 16B
T5 construct: expressed in transfected cells; host or cells: CHO
T5 sequence (P22607 23-808 isoform P22607-2 limits assumed): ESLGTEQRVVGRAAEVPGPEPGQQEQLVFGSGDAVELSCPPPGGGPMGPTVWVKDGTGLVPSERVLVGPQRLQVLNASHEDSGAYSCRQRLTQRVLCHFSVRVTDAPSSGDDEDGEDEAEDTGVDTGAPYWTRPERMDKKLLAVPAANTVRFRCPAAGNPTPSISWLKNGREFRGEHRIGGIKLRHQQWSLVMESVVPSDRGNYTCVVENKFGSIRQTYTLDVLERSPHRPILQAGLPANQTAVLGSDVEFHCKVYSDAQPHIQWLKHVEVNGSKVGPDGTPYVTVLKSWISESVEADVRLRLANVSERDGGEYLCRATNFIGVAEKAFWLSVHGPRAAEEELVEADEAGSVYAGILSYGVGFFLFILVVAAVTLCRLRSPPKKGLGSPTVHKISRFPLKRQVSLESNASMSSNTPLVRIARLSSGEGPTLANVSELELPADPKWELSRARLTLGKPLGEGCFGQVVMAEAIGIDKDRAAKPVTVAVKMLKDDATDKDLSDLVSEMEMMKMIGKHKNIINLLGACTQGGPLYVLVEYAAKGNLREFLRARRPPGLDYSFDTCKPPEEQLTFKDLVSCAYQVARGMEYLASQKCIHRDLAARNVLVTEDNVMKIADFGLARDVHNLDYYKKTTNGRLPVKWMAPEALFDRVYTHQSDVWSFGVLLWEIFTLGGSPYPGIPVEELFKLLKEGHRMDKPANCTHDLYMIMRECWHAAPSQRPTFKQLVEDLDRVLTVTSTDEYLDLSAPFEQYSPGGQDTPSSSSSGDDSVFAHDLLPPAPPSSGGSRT
Source text: (§3) CHO cells (Chinese Hamster Ovary cells) were transfected to express the human FGFR3c (FIG. 16A) or human FGFR3b (FIG. 16B) on the cell surface.

[4] = target: T6, human FGFR3c on transfected CHO cells (Homo sapiens, UniProt P22607); assay: FACS binding to CHO cells expressing human FGFR3c; details: FACs analysis, FIG. 16A
T6 construct: expressed in transfected cells; host or cells: CHO
T6 sequence (P22607 23-806): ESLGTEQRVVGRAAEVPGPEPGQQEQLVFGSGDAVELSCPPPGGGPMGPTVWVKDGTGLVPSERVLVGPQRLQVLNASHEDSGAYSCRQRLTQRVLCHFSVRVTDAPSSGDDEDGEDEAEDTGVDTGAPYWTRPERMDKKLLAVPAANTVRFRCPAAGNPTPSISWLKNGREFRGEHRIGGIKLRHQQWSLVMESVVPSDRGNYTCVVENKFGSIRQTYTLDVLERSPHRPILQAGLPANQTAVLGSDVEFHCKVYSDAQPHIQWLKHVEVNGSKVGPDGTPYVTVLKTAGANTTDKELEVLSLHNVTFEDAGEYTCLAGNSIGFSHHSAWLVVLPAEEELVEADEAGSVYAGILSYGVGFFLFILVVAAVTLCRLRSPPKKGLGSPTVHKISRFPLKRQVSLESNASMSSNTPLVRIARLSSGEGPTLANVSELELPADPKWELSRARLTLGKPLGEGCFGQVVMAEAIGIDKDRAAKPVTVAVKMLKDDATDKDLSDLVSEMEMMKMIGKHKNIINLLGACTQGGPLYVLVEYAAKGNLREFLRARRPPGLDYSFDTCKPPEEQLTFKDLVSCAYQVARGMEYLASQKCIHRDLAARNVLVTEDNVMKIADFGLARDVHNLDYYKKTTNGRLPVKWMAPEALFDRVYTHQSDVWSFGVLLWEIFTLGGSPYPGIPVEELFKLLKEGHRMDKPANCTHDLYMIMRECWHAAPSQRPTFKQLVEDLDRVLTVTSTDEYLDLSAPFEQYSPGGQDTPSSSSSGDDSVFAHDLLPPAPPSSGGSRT
Source text: as §3

mouse FGFR3c = mouse FGFR3c (Mus musculus, UniProt Q61851); assay: mFGFR3c ELISA of bi-specific binding agents; details: NB = No binding
mouse FGFR3c, sequence (Q61851 21-801): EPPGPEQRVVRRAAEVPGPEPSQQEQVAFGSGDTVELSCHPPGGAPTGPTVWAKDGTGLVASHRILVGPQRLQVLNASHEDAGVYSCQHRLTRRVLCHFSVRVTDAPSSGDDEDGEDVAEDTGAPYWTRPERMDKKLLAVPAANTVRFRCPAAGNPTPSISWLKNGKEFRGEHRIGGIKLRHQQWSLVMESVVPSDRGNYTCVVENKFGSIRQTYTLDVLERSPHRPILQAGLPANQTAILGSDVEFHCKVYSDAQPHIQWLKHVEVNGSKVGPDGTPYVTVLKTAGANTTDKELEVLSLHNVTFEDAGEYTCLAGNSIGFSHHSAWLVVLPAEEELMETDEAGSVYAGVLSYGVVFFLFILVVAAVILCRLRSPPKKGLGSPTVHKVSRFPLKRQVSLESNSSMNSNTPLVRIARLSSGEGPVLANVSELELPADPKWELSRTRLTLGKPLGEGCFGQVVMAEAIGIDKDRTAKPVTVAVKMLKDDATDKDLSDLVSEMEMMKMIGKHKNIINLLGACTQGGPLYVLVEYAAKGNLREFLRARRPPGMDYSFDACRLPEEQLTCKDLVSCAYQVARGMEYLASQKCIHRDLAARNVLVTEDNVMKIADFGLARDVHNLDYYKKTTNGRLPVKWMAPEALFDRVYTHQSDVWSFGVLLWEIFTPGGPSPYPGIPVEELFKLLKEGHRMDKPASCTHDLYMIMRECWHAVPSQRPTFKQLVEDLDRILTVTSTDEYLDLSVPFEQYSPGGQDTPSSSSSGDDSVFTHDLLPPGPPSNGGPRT
Source text: Similarly, for expression of hF6 comprising G7 fused to the C-terminus of the heavy chain, a nucleic acid construct was generated comprising a coding region directing the expression of the hF6 heavy chain located 5′ of, and in-frame with, a sequence encoding the linker and a coding region directing the expression of G7. For expression of hF6 comprising G7 fused to the N-terminus of the light chain, a nucleic acid construct was generated comprising a coding region directing the expression of G7 located 5′ of, and in-frame with, a sequence encoding the linker and a coding region directing the expression of the hF6 light chain. For expression of hF6 comprising G7 fused to the C-terminus of the light chain, a nucleic acid construct was generated comprising a coding region directing the expression of the hF6 light chain located 5′ of, and in-frame with, a sequence encoding the linker and a coding region directing the expression of G7. The indicated constructs were then co-transfected into CHO cells with a nucleic acid construct directing the expression of the corresponding heavy or light chain of hF6.

[5] = system: HCC1806 cells (CD138/FGFR3 positive cell line); assay: In vitro toxicity assay, HCC1806; assay type: cell-based
[6] = system: CHO cells expressing human FGFR3b; details: FIG. 17B
8505C cells = assay: In vitro toxicity assay, 8505C; assay type: cell-based
[7] = system: AN3CA cells (CD138/FGFR3 positive cell line); assay: In vitro toxicity assay, AN3CA; assay type: cell-based
[8] = system: CHO cells expressing human FGFR3c; details: FIG. 17C
[9] = system: RT112 cells (medium CD138 cell line); assay: Cytotoxicity assay, RT112; assay type: cell-based
Method: (§4) A 5-day cytotoxicity assay was carried out (N=3) using the ‘high CD138’ expressing cell line (KMS 11), ‘medium CD138’ cell line (RT112), and negative control cell line (ARH77).

OE19 cells = assay: In vitro toxicity assay, OE19; assay type: cell-based
HEC59 cells = assay: In vitro toxicity assay, HEC59; assay type: cell-based
[10] = system: HCC1806 cells implanted in a mouse; assay: In vivo xenograft study, HCC1806; details: Nu/Nu mice, intravenous
Method: (§5) Briefly, immunodeficient female mice (strain:Nu/Nu) were inoculated subcutaneously with 5×10^6 An3CA or HCC1806 cells. Tumors were measured using digital calipers and the tumor volume was determined according to the formula 0.5236*L*W^2. […]

untransfected CHO cells = assay: In vitro cytotoxicity, untransfected CHO cells; assay type: cell-based, Chinese Hamster; details: at concentrations less than 10000 pM, FIG. 17A
[11] = system: An3CA cells implanted in a mouse; assay: In vivo xenograft study, AN3CA; details: Nu/Nu mice, intravenous
Method: as §5

[12] = system: KMS-11 cells (high CD138 expressing cell line); assay: Cytotoxicity assay, KMS-11; assay type: cell-based
Method: as §4

MHHES-1 cells = assay: In vitro toxicity assay, MHHES-1; assay type: cell-based
[13] = system: ARH-77 cells (negative control cell line); assay: Cytotoxicity assay, ARH-77; assay type: cell-based; details: 5-day cytotoxicity assay, N=3
Method: as §4

B1: 12P16F6 hIgG1: chimeric antibody: murine variable regions of F12P16F6 (SEQ ID NO:82, 34), constant regions of human IgG1, kappa (antibody, V domains shown)
VH: QVQLQQSGAEVVKPGASVKLSCKASGYTFTSYYLYWVKKGPGQGLDWIGEIYPRSGGTNINEKFLSKATLTADESSSTAYLQLSSLTSEDSAVYYCTRSLLYWGQGTTLIVSS
VL: DVVMTQTPLTLSVTIGQPASISCKSSQSLLASDGKTYLNWLLQRPGQSPKRLIYLVSKLDSGVPDRFTGSGSGTGFTLQISRVEAEDLGIYYCWQGAHFPFTFGSGTKLEIKR
binding to cynomolgus CD138 expressing cells (cyno CD138): specific binding
binding to human CD138 expressing cells (human CD138): specific binding

B2: F12P16F6: murine anti-CD138 hybridoma antibody; VH SEQ ID NO:82, VL SEQ ID NO:34 (antibody, listed as Mus musculus, V domains shown)
VH: B1 VH
VL: B1 VL
binding to mouse CD138 peptide (mouse CD138 peptide): does not bind
% ARH77 (−) ([1]; CD138-negative ARH77 cells): 21.85%
ARH77 Geom. Mean ([1]; average fluorescence intensity): 1.12E+04
% Q4 (CD138 on H929 cells; Q4 = unbound cells): 0.223%
Cells | Geom. Mean (FL4-A) (CD138 on H929 cells; all cells): 6.94E+05
Q1 Geom. Mean (CD138 on H929 cells; average fluorescence intensity of cells in Q1): 7.07E+05
Q4 Geom. Mean (CD138 on H929 cells; average fluorescence intensity of cells in Q4): 146
% Q1 (CD138 on H929 cells; hybridoma supernatant, H929 cells, Q1 = positive binding of antibody): 99.6%
hCD138 ka (Human CD138 His): 55700 M⁻¹ s⁻¹
hCD138 kd (Human CD138 His): 0.00117 s⁻¹
H929 GeoMean ([2]; average fluorescence intensity): 6.46E+05
H929 Q1% ([2]; percentage of H929 cells bound by antibody): 99.32%

B3: hF6-HN-G7: bi-specific: G7 Fynomer attached to the N-terminal end of the heavy chain of the hF6 antibody; SEQ ID NO:125 with light chain SEQ ID NO:44 (antibody)
heavy: MEWSWVFLFFLSVTTGVHSGVTLFVALYDYEVYGPTPMLSFHKGEKFQILKGGSGPYWEARSLTTGETGLIPSNYVAPVDSIQGGGGSGGGGSGGGGSQVQLVQSGAEVVKPGASVKLSCKASGYTFTSYYLYWVKKAPGQGLDWIGEIYPRSGGTNINEKFLSRVTLTADTSTSTAYLELSSLTSEDTAVYYCTRSLLYWGQGTTLTVSS[letters of human IgG1 constant region left out]
light: DVVMTQTPLSLSVTPGQPASISCKSSQSLLASDGKTYLNWLLQRPGQSPKRLIYLVSKLDSGVPNRFSGSGSGTDFTLQISRVEAEDVGLYYCWQGAHFPFTFGSGTKLEIKRTVAAPSVFIFPPSDEQLKSGTASVVCLLNNFYPREAKVQWKVDNALQSGNSQESVTEQDSKDSTYSLSSTLTLSKADYEKHKVYACEVTHQGLSSPVTKSFNRGEC
modifications: bi-specific binding agent hF6-HN-G7; (1)..(19) signaling sequence; (20)..(83) Fynomer portion; (84)..(98) linker; Humanized Light chain variable region
binding to human FGFR3b on transfected CHO cells [3]: specifically bind
binding to human FGFR3c on transfected CHO cells [4]: specifically bind
EC50 (mouse FGFR3c): 530 pM

B4: hF6-S119C-HN-G7-II (conjugate)
heavy: GVTLFVALYDYEVYGPTPMLSFHKGEKFQILKGGSGPYWEARSLTTGETGLIPSNYVAPVDSIQGGGGSGGGGSGGGGSQVQLVQSGAEVVKPGASVKLSCKASGYTFTSYYLYWVKKAPGQGLDWIGEIYPRSGGTNINEKFLSRVTLTADTSTSTAYLELSSLTSEDTAVYYCTRSLLYWGQGTTLTVSSACTKGPSVFPLAPSSKSTSGGTAALGCLVKDYFPEPVTVSWNSGALTSGVHTFPAVLQSSGLYSLSSVVTVPSSSLGTQTYICNVNHKPSNTKVDKKV[letters of human IgG1 Fc left out]
light: B3 light
% cell killing [5]: 95.9%
EC50 [5]: 3810 pM
cytotoxicity to CHO cells expressing human FGFR3b [6]: specific cytotoxicity
% cell killing (8505C cells): 96.1%
EC50 (8505C cells): 559 pM
% cell killing [7]: 97.3%
EC50 [7]: 936 pM
cytotoxicity to CHO cells expressing human FGFR3c [8]: specific cytotoxicity
IC50 ([9]; 5-day cytotoxicity assay, N=3): 35.3 pM
RT112 % max kill ([9]; 5-day cytotoxicity assay, N=3): 99.7%
% cell killing ([9]; RT-112, Table 31): 99.7%
EC50 ([9]; RT-112, Table 31): 23.4 pM
% cell killing (OE19 cells): 70.3%
EC50 (OE19 cells): 554 pM
% cell killing (HEC59 cells): 91.7%
EC50 (HEC59 cells): 3640 pM
% T/C ([10]; 0.5 mg/kg): 8.3%
% T/C ([10]; 1 mg/kg): 5.1%
killing of untransfected CHO cells (untransfected CHO cells): did not demonstrate specific killing
% T/C ([11]; 0.5 mg/kg): 44.6%
% T/C ([11]; 1 mg/kg): 22.5%
IC50 ([12]; 5-day cytotoxicity assay, N=3): 27.9 pM
KMS-11 % max kill ([12]; 5-day cytotoxicity assay, N=3): 99.6%
% cell killing ([12]; KMS-11, Table 31): 99.6%
EC50 ([12]; KMS-11, Table 31): 113 pM
% cell killing (MHHES-1 cells): 99.3%
EC50 (MHHES-1 cells): 1370 pM
ARH-77 % max kill [13]: 98.1%
IC50 [13]: 3300 pM
